PMC3187806
No constants are given. Whether binding was seen depends on the method and setting. Binding seen in cells or lysates may run through a third protein. Some entries that bind do so weakly or less than the wild type.

Protein sequences, listed by entry. Tags and fused reporters are not part of them. Lines headed by an entry give the natural chain unless they say otherwise; changes in a name come on top. Chains listed by the source or under a name are the forms on record and can include a tag or linker.
UniProt Q06609: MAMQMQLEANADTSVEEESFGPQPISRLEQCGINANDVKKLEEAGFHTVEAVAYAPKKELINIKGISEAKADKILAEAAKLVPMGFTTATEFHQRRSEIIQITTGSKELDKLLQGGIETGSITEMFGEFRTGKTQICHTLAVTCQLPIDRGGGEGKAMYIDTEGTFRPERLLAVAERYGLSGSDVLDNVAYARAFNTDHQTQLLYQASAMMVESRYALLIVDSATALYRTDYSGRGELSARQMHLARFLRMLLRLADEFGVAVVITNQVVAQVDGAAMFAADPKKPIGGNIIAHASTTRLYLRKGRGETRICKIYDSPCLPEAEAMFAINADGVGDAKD
UniProt P29590: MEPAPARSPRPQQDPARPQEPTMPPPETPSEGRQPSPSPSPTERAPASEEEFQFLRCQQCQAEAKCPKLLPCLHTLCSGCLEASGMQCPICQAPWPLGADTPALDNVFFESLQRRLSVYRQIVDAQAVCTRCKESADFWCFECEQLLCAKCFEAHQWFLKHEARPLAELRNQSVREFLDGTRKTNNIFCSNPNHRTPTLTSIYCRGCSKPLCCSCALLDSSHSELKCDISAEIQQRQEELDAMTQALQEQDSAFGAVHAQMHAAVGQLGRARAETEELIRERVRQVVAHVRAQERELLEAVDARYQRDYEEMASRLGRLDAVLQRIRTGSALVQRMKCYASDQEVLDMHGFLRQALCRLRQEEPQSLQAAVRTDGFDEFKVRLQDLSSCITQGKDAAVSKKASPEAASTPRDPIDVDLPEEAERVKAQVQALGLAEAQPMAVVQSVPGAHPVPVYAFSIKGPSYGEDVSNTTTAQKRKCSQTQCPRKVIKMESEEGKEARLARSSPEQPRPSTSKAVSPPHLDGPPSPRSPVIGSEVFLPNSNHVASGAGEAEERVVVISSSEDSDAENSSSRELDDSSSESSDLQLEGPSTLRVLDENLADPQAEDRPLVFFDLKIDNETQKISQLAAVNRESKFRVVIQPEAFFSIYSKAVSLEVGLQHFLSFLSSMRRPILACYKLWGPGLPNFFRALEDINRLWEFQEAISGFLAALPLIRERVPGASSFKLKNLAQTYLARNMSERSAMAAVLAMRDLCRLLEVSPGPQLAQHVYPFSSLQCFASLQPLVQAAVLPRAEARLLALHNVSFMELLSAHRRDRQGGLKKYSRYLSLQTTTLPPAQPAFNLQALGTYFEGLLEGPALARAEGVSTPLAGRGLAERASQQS
Flag-tagged PML isoform V (P29590-2, form named): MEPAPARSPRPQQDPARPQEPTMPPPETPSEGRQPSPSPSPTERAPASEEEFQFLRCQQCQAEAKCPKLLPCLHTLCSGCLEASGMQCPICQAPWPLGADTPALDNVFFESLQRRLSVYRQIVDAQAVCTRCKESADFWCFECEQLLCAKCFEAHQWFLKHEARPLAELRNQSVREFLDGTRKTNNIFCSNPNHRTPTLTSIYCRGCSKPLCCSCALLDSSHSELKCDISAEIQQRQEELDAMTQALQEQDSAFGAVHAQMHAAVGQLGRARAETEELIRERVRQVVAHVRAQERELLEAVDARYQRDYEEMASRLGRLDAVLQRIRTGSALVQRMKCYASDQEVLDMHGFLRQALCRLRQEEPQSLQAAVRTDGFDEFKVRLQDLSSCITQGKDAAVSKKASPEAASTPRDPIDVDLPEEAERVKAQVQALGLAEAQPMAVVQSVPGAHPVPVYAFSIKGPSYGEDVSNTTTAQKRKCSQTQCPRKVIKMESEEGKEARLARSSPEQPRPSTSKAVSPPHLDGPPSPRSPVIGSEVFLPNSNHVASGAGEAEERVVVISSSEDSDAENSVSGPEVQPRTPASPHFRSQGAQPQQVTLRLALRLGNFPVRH

Legend:
[1] = target: Rad51 (human (endogenous in U2OS/T, U2OS and BJ/tert LT)) (UniProt Q06609); assay: condition: only U2OS cells without LT and without a DNA damaging agent; co-IP; endogenous Rad51 immunoprecipitated from lysates of untreated U2OS cells (no LT) transfected with Flag-PML I-VI for 48 h; Flag immunoblot
[2] = target: Rad51 (human (endogenous in U2OS/T, U2OS and BJ/tert LT)) (UniProt Q06609); assay: co-IP; endogenous Rad51 immunoprecipitated (rabbit polyclonal antibody) from lysates of U2OS/T cells (stably expressing SV40 LT) transfected with Flag-PML I to VI; Flag immunoblot; lysis in 0.5 M NaCl buffer diluted with an equal volume of 0.05 M NaCl buffer, 4°C, washes with 150 mM NaCl
[3] = target: Rad51 (human (endogenous in U2OS/T, U2OS and BJ/tert LT)) (UniProt Q06609); assay: co-IP; BJ/tert LT cell lysates immunoprecipitated with GFP (negative control), Rad51 or PML antibody; PML immunoblot; endogenous proteins

| binding [1] | binding [2] | binding [3] | Substance |
| --- | --- | --- | --- |
| no binding | binds weakly | – | Flag-tagged PML isoform I (from UniProt P29590-1 1-882) |
| – | – | binds | promyelocytic leukemia protein (PML), endogenous (from UniProt P29590 1-882) |
| no binding | binds | – | Flag-tagged PML isoform V (from UniProt P29590-2 1-611) |
